{"source": "the supplement of paper PMC12632987", "binders": {"B1": {"name": "GBRAP_160_4175 (protein)", "chain": "SEKLEEAEKKIKEIFEEAYKMMEGESAEERAAIVAVAFGEIILYLEEKGLLTDETEAKIDEIEDEAVEYILENPDLTEEELRELLEESAEKIIKALKENS"}, "B2": {"name": "GBRAP_35_5586 (protein)", "chain": "EDEELLLDTLEDLAEATIYAIKTEDIETVKALLETLIKYSEEAIELFKNNLEALEKLAELLEKVAKALKEYRSDNPEIQELLKKVEELLKKAKELAKKVK"}, "B3": {"name": "GBRAP_52_6070 (protein)", "chain": "MEKKIEELAKEITAALKAGDEEAALELLKKAIKELSKEEIKELLVKTAKLVAELDEETHERFVDVMDEVEDLLIEAGISEEEALLIVGDALAALAKAVAA"}, "B4": {"name": "GBRAP_166_4945 (protein)", "chain": "SLEEIREEAREFIREKAEEMKNANPEERLDLYAEIAEKLREAKEAGLPREELLELVREALELTKEAGGSVEQLVGVLFMFVDLSEEERDEVIKLAEEVKK"}, "B5": {"name": "GBRAP_160_3973 (protein)", "chain": "SEEVEELKKEIKELFDEAKKLIEGESYEERLTIIKVMVGDILLLADENPLISDEVEDKIDEIGDELIETIEKNPDLTDEEIKKLIDEAEEKILKTIDEAF"}, "B6": {"name": "GBRAP_128_3249 (protein)", "chain": "ANPEVVAYAESVVERLKAADVETAREIAEDFAEYLLTISVEDAEAAIDVVESRLGELSVEHLEILADVLREHRPKYSPEKANLVAGLEVAALNEAEEKEE"}, "B7": {"name": "GBRAP_128_3287 (protein)", "chain": "ADPELLEKVKELLEKIKNSDEEEARELAEELAELFGEVSVEEAIALAEIVEEKLPELTAEQLEILAEVLDEAMPAMTPEKAAIMADVASDALLEAEELEE"}, "B8": {"name": "GBRAP_80_6796 (protein)", "chain": "AEARLAAALARIEALDPELAARVRRIVELARAMGVSTEDLADFAEAVARLLELDPAKAAELVAELEELLEEEAARGDKANAEAVVRVYAGQALLEVEELE"}}, "note": "The full ranking holds about 4,500 sequences; the median of “median log2 fold change of GCK-ALFA target abundance (FLAG IP / Myc IP barcode read proportion)” is about 0.078, and the lowest 2% start at about -0.6. The list shows a part of the results."}
{"target": "GABARAP, O95166", "sequence (O95166 whole entry, the tested form may be a part)": "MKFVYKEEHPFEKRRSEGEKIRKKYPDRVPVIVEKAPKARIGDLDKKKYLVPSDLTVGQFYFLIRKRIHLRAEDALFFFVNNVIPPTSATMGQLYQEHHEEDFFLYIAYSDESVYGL", "experiment": "median log2 fold change of GCK-ALFA target abundance (FLAG IP / Myc IP barcode read proportion) (log2 ratio); each designed protein is fused to an ALFA-tag nanobody in HEK293 cells to bring the named protein to FLAG-tagged glucokinase (GCK); Myc marks an untargeted standard; higher = target protein stabilised (more abundant)", "conditions": "target protein: 3xFLAG-MCP-GCK-ALFA reporter; HEK293 landing pad (RPLP)", "method_in_brief": "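HEK293 landing-pad cells received a recombined binder library fused to the ALFA nanobody and were induced with 2 μg mL^−1 doxycycline, then transfected with a plasmid encoding a FLAG-tagged target and a Myc-tagged standard. Lysates were collected after 48 h for anti-FLAG and anti-Myc immunoprecipitation, and the circular RNA barcodes were reverse transcribed, amplified and sequenced. Target abundance for each binder is the median log2 ratio of FLAG to Myc barcode read proportions. Barcodes had to reach a proportion of at least 10^−7 in both replicates, each binder needed at least 3 barcodes per replicate, a pseudocount of 10^−6 was applied, and the two replicates were pooled.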"}
{"binder": "B1", "median log2 fold change": -0.178}
{"binder": "B2", "median log2 fold change": 0.012}
{"binder": "B3", "median log2 fold change": -0.473}
{"binder": "B4", "median log2 fold change": 0.177}
{"binder": "B5", "median log2 fold change": -0.605}
{"binder": "B6", "median log2 fold change": 0.0533}
{"binder": "B7", "median log2 fold change": -0.0876}
{"binder": "B8", "median log2 fold change": 0.0415}
